# Source: the supplement of paper PMC6609913
# Structures can show the parent of a compound that is named as a salt. ± gives the standard deviation of the averaged measurements. In all, about 1,300 compounds were measured (“normalised cell viability”: median about 1, lowest 2% from about 0.15 on). Some of the results follow.
# Test system: V-C8 + BRCA2 (BRCA2-proficient hamster cells)
# Test: normalised cell viability (fraction of plate median); higher = more viable cells (less toxic)
# Conditions: 5 µM
# Outline: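 Library drugs, held as 10 mM stocks in DMSO, were diluted to 5 μM in 100 μl medium and added to 96-well plates of V-C8 hamster cells, either lacking BRCA2 or with BRCA2 restored, 24 h after seeding. Plates ran for 3 days (screen 1) or 6 days (screen 2), alongside solvent-only wells. Viability came from a resazurin readout, median-plate normalised, as the mean of triplicate wells.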
SMILES,normalised cell viability (treatment time: 3 days),normalised cell viability (treatment time: 6 days)
C[C@@H]1NC(=O)NC1=O [Methylhydantoin-5-(L)],0.988 ± 0.053,1.07 ± 0.046
CN1CCN(C2=Nc3cc(Cl)ccc3Nc3ccccc32)CC1 [Clozapine],1.01 ± 0.039,1.03 ± 0.047
CCC(NC(C)C)C(O)c1ccc(O)c(O)c1 (stereo unspecified) [Isoetharine mesylate salt],1.07 ± 0.041,1.01 ± 0.063
CCC(Cc1c(I)cc(I)c(N)c1I)C(=O)O (stereo unspecified) [Iopanoic acid],0.979 ± 0.038,1.09 ± 0.057
CN1CCc2cccc3c2[C@H]1Cc1ccc(O)c(O)c1-3 [R(-) Apomorphine hydrochloride hemihydrate],0.813 ± 0.023,0.867 ± 0.025
CO[C@@]1(NC(=O)CSCC#N)C(=O)N2C(C(=O)O)=C(CSc3nnnn3C)CS[C@@H]21 [Cefmetazole sodium salt],0.959 ± 0.029,0.98 ± 0.072
C[C@@H]1[C@H](O)[C@@H](C)/C=C/C=C/C=C/C=C/C=C/C=C/C=C/[C@H](O[C@@H]2O[C@H](C)[C@@H](O)[C@H](N)[C@@H]2O)C[C@@H]2O[C@](O)(C[C@@H](O)C[C@@H](O)[C@H](O)CC[C@@H](O)C[C@@H](O)CC(=O)O[C@H]1C)C[C@H](O)[C@H]2C(=O)O [Amphotericin B],0.902 ± 0.053,0.966 ± 0.062
CCOC(=O)C(C)(C)Oc1ccc(Cl)cc1 [Clofibrate],1.06 ± 0.016,1.03 ± 0.036
CC(C)NC[C@H](O)COc1ccc(CC(N)=O)cc1 [(S)-(-)-Atenolol],1.03 ± 0.026,0.983 ± 0.051
CC(=O)N(O)CCCCCNC(=O)CCC(=O)N(O)CCCCCNC(=O)CCC(=O)N(O)CCCCCN [Deferoxamine mesylate],0.335 ± 0.014,0.2 ± 0.029
O=C1Cc2cc(CCN3CCN(c4nsc5ccccc45)CC3)c(Cl)cc2N1 [Ziprasidone  Hydrochloride],0.206 ± 0.016,0.23 ± 0.013
CC(C)/N=c1\cc2n(-c3ccc(Cl)cc3)c3ccccc3nc-2cc1Nc1ccc(Cl)cc1 [Clofazimine],0.274 ± 0.021,0.346 ± 0.037
CCN[C@H]1C[C@H](C)S(=O)(=O)c2sc(S(N)(=O)=O)cc21 [Dorzolamide hydrochloride],0.941 ± 0.024,0.922 ± 0.075
O=c1cc(-c2ccc(O)c(O)c2)oc2cc(O)cc(O)c12 [Luteolin],0.936 ± 0.045,1.07 ± 0.059
CC(C)(C(=O)c1cccnc1)c1cccnc1 [Metyrapone],1.005 ± 0.0075,1.02 ± 0.081
Cn1ccnc1S [Methimazole],0.965 ± 0.019,1.02 ± 0.037
Nc1c(Br)cc(Br)cc1CN[C@H]1CC[C@H](O)CC1 [Ambroxol hydrochloride],1.17 ± 0.034,1.11 ± 0.087
CC(C)(Sc1cc(C(C)(C)C)c(O)c(C(C)(C)C)c1)Sc1cc(C(C)(C)C)c(O)c(C(C)(C)C)c1 [Probucol],0.922 ± 0.059,1.06 ± 0.013
